Measured values: patent publication US20250270287A1 (KEROS THERAPEUTICS, published 2025)

Tests used:
Assay in all cases: SPR (Biacore 8K), Fc protein captured on anti-human IgG, ligand injected
Activin A = biological target: T1, Activin A (UniProt P08476 311-426)
T1 sequence (looked up): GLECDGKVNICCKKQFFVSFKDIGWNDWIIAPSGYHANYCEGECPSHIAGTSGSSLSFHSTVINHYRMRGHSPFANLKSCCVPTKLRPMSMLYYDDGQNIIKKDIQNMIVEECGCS
Experimental: (§1) The Cytiva Biacore 8k was used to measure the kinetics of the interactions between the ActRII- and chimera-Fc proteins and Activin A/Activin B/growth differentiation factor 8 (GDF-8)/GDF-11/BMP-9/BMP-10. Series S CM4 Sensor Chips were immobilized with anti-human capture antibody using the reagents and protocol in the Biacore Human Antibody Capture Kit (GE Life Sciences). Briefly, anti-human IgG was diluted to 25 μg/mL in immobilization buffer. The carboxylated surface of the sensor was activated by injecting a mixture of EDC and NHS. The anti-human IgG was injected into the activated sensor chip flow cells at 10 μL/min for a total of 7 minutes until the chip reached an immobilization level of 3000 resonance units (RU). Ethanolamine was injected to deactivate the sensor surfaces. The chip has 8 flow cells to be used for binding analysis, each with an in-line reference surface to subtract instrument noise and non-specific binding to the sensor chip. The ActRII- and chimera-Fc proteins were captured in their own flow cell to allow for a maximum analyte binding response of 20-30 RU. This was done by injecting 10-20 μL of the ActRII- and chimera-Fc proteins into the flow cells at a concentration of 2 μg/mL until 60-90 RU was captured. Ligand at a single concentration was injected at […] for 60 seconds and then allowed to dissociate under buffer flow for no less than 5 minutes. After the cycle completed, captured protein was stripped from the chip with an injection of 3 M magnesium chloride, the regeneration buffer provided with the Biacore Human Antibody Capture Kit. Each ligand was injected in a concentration series, including a buffer only 0 nM concentration to serve as a double reference for subtracting out instrument noise. The data were analyzed using the Biacore Insight Evaluation Software.

GDF-11 = biological target: T2, GDF-11 (UniProt O95390 299-407)
T2 construct: also called growth and differentiation factor 11
T2 sequence (looked up): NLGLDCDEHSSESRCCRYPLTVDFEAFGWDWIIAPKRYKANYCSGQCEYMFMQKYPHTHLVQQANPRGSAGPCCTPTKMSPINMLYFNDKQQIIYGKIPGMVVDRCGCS
Experimental: as §1

Activin B = biological target: T3, Activin B (UniProt P09529 293-407)
T3 sequence (looked up): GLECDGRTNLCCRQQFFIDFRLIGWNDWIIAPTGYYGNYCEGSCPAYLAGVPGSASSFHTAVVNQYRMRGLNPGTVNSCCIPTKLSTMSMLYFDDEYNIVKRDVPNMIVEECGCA
Experimental: as §1

BMP-10 = biological target: T4, BMP-10 (UniProt O95393 317-424)
T4 sequence (looked up): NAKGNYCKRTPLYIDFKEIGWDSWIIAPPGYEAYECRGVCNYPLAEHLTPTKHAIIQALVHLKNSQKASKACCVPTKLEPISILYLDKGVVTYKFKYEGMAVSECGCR
Experimental: as §1

BMP-9 = biological target: T5, BMP-9 (UniProt Q9UK05 320-429)
T5 construct: also called bone morphogenetic protein 9
T5 sequence (looked up): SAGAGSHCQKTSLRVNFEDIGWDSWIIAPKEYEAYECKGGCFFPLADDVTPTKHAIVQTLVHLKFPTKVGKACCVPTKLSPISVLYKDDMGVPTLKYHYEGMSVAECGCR
Experimental: as §1

[1] = biological target: T6, growth differentiation factor 8 (GDF-8) (UniProt O14793 267-375)
T6 construct: also called myostatin
T6 sequence (looked up): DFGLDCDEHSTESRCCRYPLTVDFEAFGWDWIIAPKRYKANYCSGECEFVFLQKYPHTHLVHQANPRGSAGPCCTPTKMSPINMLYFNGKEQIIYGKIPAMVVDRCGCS
Experimental: as §1

- Kd (Activin A): 0.16 nM
- Kd (GDF-11): < 1 pM
- Kd (Activin B): 0.066 nM
- Kd (BMP-10): 0.105 nM
- Kd (BMP-9): 59.1 nM
- Kd [1]: 0.222 nM
B1: ActRIIA (SEQ ID NO: 30) Fc protein (Fc fusion)
chain: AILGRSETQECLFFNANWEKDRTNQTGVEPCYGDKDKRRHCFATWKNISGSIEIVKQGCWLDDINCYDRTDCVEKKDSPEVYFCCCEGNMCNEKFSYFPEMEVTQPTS
notes: also called ActRII-Fc; wild-type extracellular ActRIIA; not shown: linker (if any) and Fc domain
